{
  "source": "paper PMC6919601",
  "about": "“Identification of Plasmodium dipeptidyl aminopeptidase allosteric inhibitors by high throughput screening” (PLoS ONE, 2019)",
  "note": "The campaign covered roughly 110,000 compounds. About 230 (0.21%) showed an effect of 50% or more. Some of the results follow.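 Also: 30 min substrate incubation versus DMSO and 10 µM JCP410 controls.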",
  "data": [
    {"target": "DPAP1 (Plasmodium falciparum, UniProt Q8IIJ9)", "sequence (Q8IIJ9 whole entry, looked up)": "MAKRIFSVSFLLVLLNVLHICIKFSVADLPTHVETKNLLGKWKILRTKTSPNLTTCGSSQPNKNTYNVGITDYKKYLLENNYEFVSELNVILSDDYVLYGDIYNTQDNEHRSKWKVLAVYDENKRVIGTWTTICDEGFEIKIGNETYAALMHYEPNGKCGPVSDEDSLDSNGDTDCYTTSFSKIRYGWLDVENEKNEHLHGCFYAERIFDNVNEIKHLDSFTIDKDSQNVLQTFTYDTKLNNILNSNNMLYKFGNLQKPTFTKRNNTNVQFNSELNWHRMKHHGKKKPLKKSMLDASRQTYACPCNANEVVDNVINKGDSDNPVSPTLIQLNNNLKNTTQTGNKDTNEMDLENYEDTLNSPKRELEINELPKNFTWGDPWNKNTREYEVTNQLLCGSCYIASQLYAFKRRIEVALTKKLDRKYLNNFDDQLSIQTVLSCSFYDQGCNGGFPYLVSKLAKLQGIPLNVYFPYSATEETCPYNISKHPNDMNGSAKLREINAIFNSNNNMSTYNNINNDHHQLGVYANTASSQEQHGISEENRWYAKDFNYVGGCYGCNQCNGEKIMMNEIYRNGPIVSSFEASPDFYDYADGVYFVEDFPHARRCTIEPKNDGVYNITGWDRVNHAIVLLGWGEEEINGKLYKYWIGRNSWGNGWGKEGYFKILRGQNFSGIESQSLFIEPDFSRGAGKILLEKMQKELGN", "assay": "primary screen, percent inhibition; read by cleavage of a fluorogenic dipeptide substrate; higher = more effect of the substance", "design": "species or system P. falciparum D10 trophozoite lysates; single well", "units": {"% Inhibition @ 10 uM": "%"}, "values": [
      {"smiles": "COc1cc(C2Nc3cccc4cccc(c34)N2)cc(OC)c1O", "% Inhibition @ 10 uM": -1.37},
      {"smiles": "Cn1c(=O)cc2c3c(c(N)ccc31)C(=O)c1ccccc1-2", "% Inhibition @ 10 uM": -8.01},
      {"smiles": "Cc1cc(C)c(OCC(=O)N(Cc2ccccc2)C2CCS(=O)(=O)C2)c(C)c1", "note": "(centres unmarked)", "% Inhibition @ 10 uM": 0.812},
      {"smiles": "CC1CCc2c(sc(NC(=O)C(C)Oc3ccccc3)c2C(N)=O)C1", "note": "(centres unmarked)", "% Inhibition @ 10 uM": -12.4},
      {"smiles": "CCOc1ccc(C2C3=C(O)CCCC3=Nc3nc4ccccc4n32)cc1OC", "note": "(centres unmarked)", "% Inhibition @ 10 uM": -1.62},
      {"smiles": "COc1cccc(/C=C/c2nc(C#N)c(NCCCN(C)C)o2)c1", "% Inhibition @ 10 uM": 0.685},
      {"smiles": "Cc1ccc(N2CCN(Cc3coc4c(Cl)cc(Cl)cc4c3=O)CC2)cc1", "% Inhibition @ 10 uM": -0.0648},
      {"smiles": "CN1CCN(C(=O)c2cnn3c(C(F)(F)F)cc(-c4ccc(Br)cc4)nc23)CC1", "% Inhibition @ 10 uM": -2.16},
      {"smiles": "COc1ccc(C(=O)CSc2nc(N)cc(O)n2)cc1C", "% Inhibition @ 10 uM": -1.6},
      {"smiles": "Cn1c(NCCCO)nc2c1c(=O)n(Cc1ccccc1F)c(=O)n2C", "% Inhibition @ 10 uM": 0.279},
      {"smiles": "COc1ccc(-c2cc(-c3ccc(C)cc3)nc(N3CCOCC3)n2)cc1", "% Inhibition @ 10 uM": 1.04},
      {"smiles": "Cc1cc(O)c2ccc(Cl)cc2n1", "% Inhibition @ 10 uM": 8.97},
      {"smiles": "COc1ccc(CC(=O)Nc2sc3c(c2C(N)=O)CCCCC3)cc1OC", "% Inhibition @ 10 uM": 57},
      {"smiles": "c1ccc(-c2ncnc(-c3ccccc3)n2)cc1", "% Inhibition @ 10 uM": 18.3},
      {"smiles": "CCCCOc1ccc(C2C(C#N)=C(N)Oc3[nH]nc(CCC)c32)cc1OC", "note": "(centres unmarked)", "% Inhibition @ 10 uM": -0.988},
      {"smiles": "Cn1c(=O)c2ncn(CC(=O)Nc3cc(C(F)(F)F)ccc3N3CCOCC3)c2n(C)c1=O", "% Inhibition @ 10 uM": -1.43},
      {"smiles": "O=C(O)c1ccc(-c2nc3cc(Cl)c(Cl)cc3[nH]2)cc1", "% Inhibition @ 10 uM": -9.31},
      {"smiles": "Nc1cccc(C(=O)Nc2cccc(S(=O)(=O)CCO)c2)c1", "% Inhibition @ 10 uM": -6.21},
      {"smiles": "O=C(C#Cc1ccccc1)C#Cc1ccccc1", "% Inhibition @ 10 uM": -8.2},
      {"smiles": "Cc1ccc2c(CNCc3ccc(OC(C)C)cc3)c(C(=O)O)n(Cc3ccc(F)cc3)c2c1", "% Inhibition @ 10 uM": 1.53},
      {"smiles": "COc1ccc(C(=O)c2cc(OC)c(OC)cc2C(=O)O)cc1OC", "% Inhibition @ 10 uM": 4.98},
      {"smiles": "CCc1nc2sc3c(c2c2nnnn12)CCCC3", "% Inhibition @ 10 uM": -2.59},
      {"smiles": "O=C(/C=C/c1ccco1)NC(=S)N1CCCCCC1", "% Inhibition @ 10 uM": -3.48},
      {"smiles": "CC(C)(C)c1ccc(C(=O)NCCCNC2=NS(=O)(=O)c3ccccc32)cc1", "% Inhibition @ 10 uM": 0.146},
      {"smiles": "N#CCCN(C(=O)Nc1ccccc1)c1ccccc1", "% Inhibition @ 10 uM": 5.63},
      {"smiles": "CCCC[C@@H](/C=C/S(=O)(=O)c1ccccc1)NC(=O)[C@@H](N)Cc1cc(I)c(O)c(I)c1", "% Inhibition @ 10 uM": 1.7},
      {"smiles": "Cc1cc(O)c(C2=NCCSC(c3cc(Cl)cc(Cl)c3O)C2)c(=O)o1", "note": "(centres unmarked)", "% Inhibition @ 10 uM": -0.0372},
      {"smiles": "Cc1ccc(NC(=O)CN2CCN(CC#N)CC2)cc1", "% Inhibition @ 10 uM": 3.29},
      {"smiles": "CCOC(=O)c1c(C)[nH]c(C)c1S(=O)(=O)NCC(=O)N1CCN(C)CC1", "% Inhibition @ 10 uM": 4.39},
      {"smiles": "CCOP(=S)(OCC)C(O)c1ccccc1", "note": "(centres unmarked)", "% Inhibition @ 10 uM": -1.82},
      {"smiles": "Cc1nc2c(c(C)nn2C(C)(C)C)c(C)c1CCC(=O)O", "% Inhibition @ 10 uM": 2.39},
      {"smiles": "CCCN1CCC(N(C)CCc2ccccc2)CC1", "% Inhibition @ 10 uM": 0.472},
      {"smiles": "COc1ccc(Br)cc1CNC(=O)c1c(C)nc2ccccn2c1=O", "% Inhibition @ 10 uM": 0.0882},
      {"smiles": "Cc1cc(-c2ccccc2)c2nncn2n1", "% Inhibition @ 10 uM": 3.36},
      {"smiles": "Cc1sc2ncn(CC(=O)NCCCN3CCOCC3)c(=O)c2c1S(=O)(=O)N1CCOCC1", "% Inhibition @ 10 uM": 2.84},
      {"smiles": "O=C(O)c1c(CNCCN2CCOCC2)c2ccccc2n1Cc1ccc(F)cc1Cl", "% Inhibition @ 10 uM": -6.95},
      {"smiles": "CCc1ccc(C2c3c(oc4ccc(F)cc4c3=O)C(=O)N2c2nc(C)c(C)s2)cc1", "note": "(centres unmarked)", "% Inhibition @ 10 uM": 2.1},
      {"smiles": "Nc1nn(-c2ccccc2)nc1C(=O)OCc1cc2c(cc1Br)OCO2", "% Inhibition @ 10 uM": -5.53},
      {"smiles": "C=CCN1C(=O)NC2(O)C(=O)c3ccccc3C12O", "note": "(centres unmarked)", "% Inhibition @ 10 uM": 0.121},
      {"smiles": "CCN1C(=O)S/C(=C/c2c(OC)cc(OC)cc2OC)C1=O", "% Inhibition @ 10 uM": -1.22},
      {"smiles": "CCOc1ccccc1CNC(=O)c1cc2oc3ccccc3c2n1C", "% Inhibition @ 10 uM": -1.6},
      {"smiles": "Cc1cccc(NCc2nc3ccccc3n2C)c1", "% Inhibition @ 10 uM": -6.88},
      {"smiles": "O=C(C1CCN(c2ncnc3c2sc2cccc(F)c23)CC1)N1CCCC1", "% Inhibition @ 10 uM": -3.57},
      {"smiles": "OC(COCc1ccccc1)CN1CCN(c2ccc(F)cc2)CC1", "note": "(centres unmarked)", "% Inhibition @ 10 uM": 0.565},
      {"smiles": "O=C(CSC(=S)N1CCCC1)c1ccccc1", "% Inhibition @ 10 uM": -0.192},
      {"smiles": "Cc1ccc(NS(=O)(=O)c2cc(Cl)ccc2Cl)cc1Cl", "% Inhibition @ 10 uM": 0.135},
      {"smiles": "CCOc1ccc(/C=C2\\C(=O)ON=C2c2ccc(Cl)cc2)c(OCC)c1", "% Inhibition @ 10 uM": -0.386},
      {"smiles": "O=C1CC(c2ccc3c(c2)OCO3)C2=C(CC(c3ccc(F)cc3)CC2=O)N1", "note": "(centres unmarked)", "% Inhibition @ 10 uM": -2.24},
      {"smiles": "Cc1ccc(Cn2c(C)c(CNCCc3ccccc3Cl)c(C(=O)O)c2C)cc1", "% Inhibition @ 10 uM": -3.67},
      {"smiles": "O=C(NCCc1ccc(Cl)cc1)c1cc(-c2cccnc2)nc2ccccc12", "% Inhibition @ 10 uM": -0.519}
    ]}
  ]
}
